Over roughly 2,900 compounds, “IRF Lucia reporter activity, fold change vs agonist alone” has its median near 0.9; the highest 2% begin near 2.8. The list shows a part of the results.
Legend:
RAW-Dual [1] = assay: IRF Lucia reporter activity, fold change vs agonist alone; higher = enhanced IRF activity; details: agonist: MPLA (TLR4) […]
Method in brief: (§1)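 Cytotoxic wells were those whose IncuCyte confluency was below 70% of agonist controls in both mask sets. The cells were RAW-Dual macrophages at 50,000 cells/well in DMEM on 384-well plates, dosed with 50 nL of library stock by pin tool, stimulated with a PRR agonist 1 h later, and kept at 37 °C, 5% CO2 for 20 hours. IRF and NF-κB reporter activity, as fold change over agonist-alone wells, came from supernatant read by QuantiLuc luminescence and QuantiBlue absorbance, respectively.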

RAW-Dual [2] = assay: IRF Lucia reporter activity, fold change vs agonist alone; cytotoxicity flag (confluency mask): not cytotoxic; higher = enhanced IRF activity
Method in brief: as §1

RAW-Dual [3] = assay: IRF Lucia reporter activity, fold change vs agonist alone; cytotoxicity flag (confluency mask): cytotoxic (confluency <70% of control); higher = enhanced IRF activity
Method in brief: as §1

[4] = library stock concentration (final ~1000-fold dilution): 10 mM, cytotoxicity flag (confluency mask): not cytotoxic
[5] = agonist: 3'3'-cGAMP (STING) 10 ug/mL
[6] = library stock concentration (final ~1000-fold dilution): 10 mM, cytotoxicity flag (confluency mask): cytotoxic (confluency <70% of control)

## Cn1ncc(Cl)c1-c1cc(C(=O)NC(CN)Cc2ccc(F)c(F)c2)oc1Cl (configuration not stated)
RAW-Dual [1]; [4]
  IRF Lucia reporter activity: 0.312

## Cn1ncc(Cl)c1-c1cc(C(=O)NC(CN)Cc2ccc(F)c(F)c2)oc1Cl (configuration not stated) (library stock concentration (final ~1000-fold dilution): 10 mM)
RAW-Dual [2]; [5]
  IRF Lucia reporter activity: 0.131
RAW-Dual [2]; agonist: LPS (TLR4) 0.1 ug/mL
  IRF Lucia reporter activity: 0.379

## CCC(C)C(NC(=O)C(CCCCN)NC(=O)C(CCC(=O)O)NN)C(=O)NC(CCC(N)=O)C(=O)NC(C)C(=O)NC(CCCCN)C(=O)N1CCCC1C(=O)NC(C)C(=O)C(=O)C(CC(C)C)NC(=O)C(CCC(N)=O)NC(=O)C(NC(=O)C(NC(=O)C(CCCNC(=N)N)NC(=O)C(Cc1ccccc1)NC(=O)C(CCCCNNC(Cc1ccccc1)C(=O)NC(CO)C(=O)NC(CCC(=O)O)C(=O)NC(CO)C(=O)NC(C(=O)NC(CC(N)=O)C(=O)NC(C=O)CO)C(C)O)NC(=O)C(Cc1ccccc1)NC(=O)C(CO)NC(=O)C(CCC(=O)O)NC(=O)C(CO)NC(=O)C(NC(=O)C(CC(N)=O)NC(=O)C(N)CO)C(C)O)C(C)C)C(C)O (configuration not stated) (library stock concentration (final ~1000-fold dilution): 10 mM water)
RAW-Dual [2]; [5]
  IRF Lucia reporter activity: 1.21
RAW-Dual [2]; agonist: LPS (TLR4) 0.1 ug/mL
  IRF Lucia reporter activity: 0.916

## CN1C(=N)NC(C)(c2cc(NC(=O)c3ccc(F)cn3)ccc2F)CS1(=O)=O (configuration not stated) (library stock concentration (final ~1000-fold dilution): 10 mM)
RAW-Dual [2]; [5]
  IRF Lucia reporter activity: 1.2
RAW-Dual [2]; agonist: LPS (TLR4) 0.1 ug/mL
  IRF Lucia reporter activity: 1.21

## CC(C)(O)CC(=O)NCCn1ccc2ncnc(Nc3ccc(Oc4cccc(C(F)(F)F)c4)c(Cl)c3)c21 (library stock concentration (final ~1000-fold dilution): 10 mM)
RAW-Dual [3]; [5]
  IRF Lucia reporter activity: 0.702
RAW-Dual [3]; agonist: LPS (TLR4) 0.1 ug/mL
  IRF Lucia reporter activity: 0.545

## CC(C)(O)CC(=O)NCCn1ccc2ncnc(Nc3ccc(Oc4cccc(C(F)(F)F)c4)c(Cl)c3)c21
RAW-Dual [1]; [6]
  IRF Lucia reporter activity: 0.596

## CCC1(C)CC(=O)NC1=O (configuration not stated)
RAW-Dual [1]; [4]
  IRF Lucia reporter activity: 0.957

## CCC1(C)CC(=O)NC1=O (configuration not stated) (library stock concentration (final ~1000-fold dilution): 10 mM)
RAW-Dual [2]; [5]
  IRF Lucia reporter activity: 1
RAW-Dual [2]; agonist: LPS (TLR4) 0.1 ug/mL
  IRF Lucia reporter activity: 0.548

## Cc1c(C(=O)N2CCOc3ccc(-c4ccc(N)nc4)cc3C2)ccc(S(C)(=O)=O)c1F
RAW-Dual [1]; library stock concentration (final ~1000-fold dilution): 2 mM, cytotoxicity flag (confluency mask): not cytotoxic
  IRF Lucia reporter activity: 1.18

## Cc1c(C(=O)N2CCOc3ccc(-c4ccc(N)nc4)cc3C2)ccc(S(C)(=O)=O)c1F (library stock concentration (final ~1000-fold dilution): 2 mM)
RAW-Dual [2]; [5]
  IRF Lucia reporter activity: 0.869
RAW-Dual [2]; agonist: LPS (TLR4) 0.1 ug/mL
  IRF Lucia reporter activity: 0.985

## CC(C)c1cc(C(C)C)c(CC(=O)NS(=O)(=O)Oc2c(C(C)C)cccc2C(C)C)c(C(C)C)c1 (library stock concentration (final ~1000-fold dilution): 10 mM)
RAW-Dual [2]; [5]
  IRF Lucia reporter activity: 1.01
RAW-Dual [2]; agonist: LPS (TLR4) 0.1 ug/mL
  IRF Lucia reporter activity: 0.653

## CC(C)c1cc(C(C)C)c(CC(=O)NS(=O)(=O)Oc2c(C(C)C)cccc2C(C)C)c(C(C)C)c1
RAW-Dual [1]; [4]
  IRF Lucia reporter activity: 1.09

## O=C(NNc1nc2cc(F)ccc2n2cccc12)c1cnccn1 (library stock concentration (final ~1000-fold dilution): 10 mM)
RAW-Dual [2]; [5]
  IRF Lucia reporter activity: 1.04
RAW-Dual [2]; agonist: LPS (TLR4) 0.1 ug/mL
  IRF Lucia reporter activity: 1.02

## O=C(NNc1nc2cc(F)ccc2n2cccc12)c1cnccn1
RAW-Dual [1]; [4]
  IRF Lucia reporter activity: 1.07

## CCCCCCCCCCCCCCCc1cccc(O)c1C(=O)O
RAW-Dual [1]; [4]
  IRF Lucia reporter activity: 0.933

## CCCCCCCCCCCCCCCc1cccc(O)c1C(=O)O (library stock concentration (final ~1000-fold dilution): 10 mM)
RAW-Dual [2]; [5]
  IRF Lucia reporter activity: 0.662
RAW-Dual [2]; agonist: LPS (TLR4) 0.1 ug/mL
  IRF Lucia reporter activity: 0.982

## Nc1ncn(C2OC(CO)C(O)C2O)c(=O)n1 (configuration not stated) (library stock concentration (final ~1000-fold dilution): 10 mM)
RAW-Dual [2]; [5]
  IRF Lucia reporter activity: 0.496
RAW-Dual [2]; agonist: LPS (TLR4) 0.1 ug/mL
  IRF Lucia reporter activity: 0.927

## Nc1ncn(C2OC(CO)C(O)C2O)c(=O)n1 (configuration not stated)
RAW-Dual [1]; [4]
  IRF Lucia reporter activity: 0.686

## COC(=O)/C=C/C(=O)OC (library stock concentration (final ~1000-fold dilution): 10 mM)
RAW-Dual [2]; [5]
  IRF Lucia reporter activity: 0.619
RAW-Dual [2]; agonist: LPS (TLR4) 0.1 ug/mL
  IRF Lucia reporter activity: 1.08

## CCN1C(=O)C=CC1=O
RAW-Dual [1]; [6]
  IRF Lucia reporter activity: 0.16

## CCN1C(=O)C=CC1=O (library stock concentration (final ~1000-fold dilution): 10 mM)
RAW-Dual [3]; [5]
  IRF Lucia reporter activity: 0.565
RAW-Dual [3]; agonist: LPS (TLR4) 0.1 ug/mL
  IRF Lucia reporter activity: 0.0147

## O=C(NC(Cc1cc(=O)[nH]c2ccccc12)C(=O)O)c1ccc(Cl)cc1 (configuration not stated)
RAW-Dual [1]; [4]
  IRF Lucia reporter activity: 1.04

## O=C(NC(Cc1cc(=O)[nH]c2ccccc12)C(=O)O)c1ccc(Cl)cc1 (configuration not stated) (library stock concentration (final ~1000-fold dilution): 10 mM)
RAW-Dual [2]; [5]
  IRF Lucia reporter activity: 1.11
RAW-Dual [2]; agonist: LPS (TLR4) 0.1 ug/mL
  IRF Lucia reporter activity: 0.942

## CC1(C)CC[C@]2(NC(=O)C(C)(F)F)CC[C@]3(C)[C@H](C(=O)C=C4[C@@]5(C)C=C(C#N)C(=O)C(C)(C)[C@@H]5CC[C@]43C)[C@@H]2C1 (library stock concentration (final ~1000-fold dilution): 10 mM)
RAW-Dual [3]; [5]
  IRF Lucia reporter activity: 0.0143
RAW-Dual [3]; agonist: LPS (TLR4) 0.1 ug/mL
  IRF Lucia reporter activity: 0.0184

## COc1ccc(-c2cc3nccn3c(Nc3ncccc3C(N)=O)n2)cc1OC.Cl.Cl (library stock concentration (final ~1000-fold dilution): 10 mM)
RAW-Dual [2]; [5]
  IRF Lucia reporter activity: 0.153
RAW-Dual [2]; agonist: LPS (TLR4) 0.1 ug/mL
  IRF Lucia reporter activity: 0.134

## COc1ccc(-c2cc3nccn3c(Nc3ncccc3C(N)=O)n2)cc1OC.Cl.Cl
RAW-Dual [1]; [4]
  IRF Lucia reporter activity: 0.124

## CCOC(=O)c1ccc(NC2CCCCC2)c(N)c1
RAW-Dual [1]; [4]
  IRF Lucia reporter activity: 1.83

## CCOC(=O)c1ccc(NC2CCCCC2)c(N)c1 (library stock concentration (final ~1000-fold dilution): 10 mM)
RAW-Dual [2]; [5]
  IRF Lucia reporter activity: 1.04
RAW-Dual [2]; agonist: LPS (TLR4) 0.1 ug/mL
  IRF Lucia reporter activity: 4.71

## CCOC(=O)C1=C(C)NC(C)=C(C(=O)OC)C1c1cccc(Cl)c1Cl (configuration not stated) (library stock concentration (final ~1000-fold dilution): 10 mM)
RAW-Dual [2]; [5]
  IRF Lucia reporter activity: 1.31
RAW-Dual [2]; agonist: LPS (TLR4) 0.1 ug/mL
  IRF Lucia reporter activity: 1.17

## CCOC(=O)C1=C(C)NC(C)=C(C(=O)OC)C1c1cccc(Cl)c1Cl (configuration not stated)
RAW-Dual [1]; [4]
  IRF Lucia reporter activity: 1.08

## CN1CCN(Cc2ccc(-c3cnc4[nH]cc(-c5ccc6[nH]ccc6c5)c4c3)cc2)CC1
RAW-Dual [1]; [4]
  IRF Lucia reporter activity: 0.0141

## CN1CCN(Cc2ccc(-c3cnc4[nH]cc(-c5ccc6[nH]ccc6c5)c4c3)cc2)CC1 (library stock concentration (final ~1000-fold dilution): 10 mM)
RAW-Dual [2]; [5]
  IRF Lucia reporter activity: 0.00761
RAW-Dual [2]; agonist: LPS (TLR4) 0.1 ug/mL
  IRF Lucia reporter activity: 0.0167

## Cc1cc(O)c(-c2ccc(C(C)CN(C)C)cc2)c2c1[nH]c(=O)c1sccc12.Cl.Cl (configuration not stated) (library stock concentration (final ~1000-fold dilution): 10 mM)
RAW-Dual [3]; [5]
  IRF Lucia reporter activity: 0.0135
RAW-Dual [3]; agonist: LPS (TLR4) 0.1 ug/mL
  IRF Lucia reporter activity: 0.163

Source: the supplement of paper PMC10037445
